# From PubChem BioAssay AID1030 (National Center for Advancing Translational Sciences (NCATS), 2008)
# The whole screen tested about 220,000 compounds, of which about 16,000 (7.3%) were called active. Inconclusive means that the source gave no clear call. Such entries were picked first, then a sample of the others. The call rests on the fitted dose curve; in most records, active means well fitted inhibition curve with a large enough effect (not every such curve was filed as active); inconclusive means small, poorly fitted or top-dose-only effect, or another doubt; inactive means no such curve, though single readings can be large or run the other way. Potencies of inconclusive entries are left out as doubtful fits.
# Molecular target: Aldehyde dehydrogenase 1A1 (Homo sapiens) (UniProt P00352)
# Experiment: qHTS Assay for Inhibitors of Aldehyde Dehydrogenase 1 (ALDH1A1);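 on activity, negative = inhibition: plate controls were no enzyme wells and a reference inhibitor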
# Settings: Purified ALDH1A1, NADH fluorescence, propionaldehyde substrate; series mostly up to 75.3 µM
# Potency means the concentration at half of the fitted maximal effect; tags describe the fitted curve by direction and shape.
# Sequence of UniProt P00352 (P00352 whole entry, looked up): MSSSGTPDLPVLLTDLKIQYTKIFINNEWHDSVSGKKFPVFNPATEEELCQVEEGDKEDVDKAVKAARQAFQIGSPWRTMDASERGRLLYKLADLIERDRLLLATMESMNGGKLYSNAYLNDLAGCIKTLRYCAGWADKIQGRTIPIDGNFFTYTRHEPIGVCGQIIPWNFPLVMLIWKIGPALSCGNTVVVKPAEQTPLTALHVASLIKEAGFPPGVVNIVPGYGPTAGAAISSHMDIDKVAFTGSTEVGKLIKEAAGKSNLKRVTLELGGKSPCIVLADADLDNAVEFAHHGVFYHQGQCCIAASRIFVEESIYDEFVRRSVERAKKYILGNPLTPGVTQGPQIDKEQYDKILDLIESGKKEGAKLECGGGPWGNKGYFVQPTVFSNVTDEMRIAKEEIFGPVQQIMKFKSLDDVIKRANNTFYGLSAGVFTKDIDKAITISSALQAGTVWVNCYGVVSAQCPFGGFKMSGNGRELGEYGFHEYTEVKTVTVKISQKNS
Compound,Potency,"activity, negative = inhibition"
N#Cc1cccc(-c2ccc3ncnc(NCc4ccccc4)c3c2)c1,"inconclusive [inhibitor, single point]",
CCOC(=O)c1sc(NC(=O)CSc2nnc(-c3ccco3)o2)c(C(=O)OCC)c1C,inactive,
CCOc1cc(/C=C2\C(=O)N(Cc3ccc(C)cc3)C(C)=C2C(=O)OC)ccc1O,"inconclusive [inhibitor, single point]",
O=C(CCC(=O)Nc1ccccc1Cl)NNC(=O)c1ccccc1[N+](=O)[O-],inactive,
CCOc1ccc(NS(=O)(=O)c2ccc3c(c2)CCN3C(=O)CCC(=O)O)cc1,inactive,
CCOc1cc(/C=C2\C(=O)N(Cc3ccco3)C(C)=C2C(=O)OC)ccc1O,active: 15.8 µM,
CCC/C=C(\CCC)C(NC(=O)c1ccco1)c1ccc(C(=O)OC)cc1 (stereo not given),inactive,
Cc1cc(C)c2c(N)c(S(=O)c3ccc(C(C)(C)C)cc3)sc2n1 (stereo not given),"inconclusive [inhibitor, single point]",
COc1ccccc1Nc1ccc(Nc2ccccc2OC)nn1,"inconclusive [inhibitor, single point]",
COc1ccc(NC(=O)c2cc3c(=O)n4ccccc4nc3n2C)cc1OC,inactive,
Cc1ccc2nc(-c3ccccn3)cc(C(=O)NC3CCN(C)CC3)c2c1,"inconclusive [inhibitor, single point]",
COCCNC(=O)C1CCN(C(=O)c2cc3sccc3n2Cc2ccc(F)cc2)CC1,"inconclusive [inhibitor, partial curve]",
CN(C)c1ccc(NC2=C(Cl)C(=O)c3ccccc3C2=O)cc1,"inconclusive [inhibitor, single point]",
Cc1cc[n+](C2=C([O-])c3ccccc3C(=O)/C2=N\S(=O)(=O)c2cccs2)cc1C,"inconclusive [inhibitor, single point]",
Cc1ccn2c(NC(C)(C)C)c(-c3cccs3)nc2c1,"inconclusive [inhibitor, single point]",
CCn1ncc(/C=C2/SC(=S)NC2=O)c1C,inactive,
COc1ccccc1NS(=O)(=O)c1ccc(NN=C2CCCC2)c([N+](=O)[O-])c1,"inconclusive [inhibitor, single point]",
O=C(O)c1ccccc1CSc1nnc2c(n1)[nH]c1ccccc12,inactive,
O=C(N/N=C\c1ccc(-c2cccc(Cl)c2)o1)C(=O)NC1CCCC1,"inconclusive [inhibitor, single point]",
COc1cc(C(=S)N2CCCCC2)ccc1OCC(=O)N1CCCC1,active: 22.4 µM,
Cc1nn(C)cc1/C=N/NC(=O)c1ccc2c(c1)OCO2,inactive,
CC(=O)c1ccc(NC(=O)COC(=O)c2ccccc2N=Nc2ccc(N(C)C)cc2)cc1,inactive,
CN(C)CC/C=C1/c2cc(F)ccc2CSc2ccc(F)cc21,inactive,
C=C1c2cc(C)ccc2NC(=O)N1c1ccc(C)cc1,"inconclusive [inhibitor, full curve]",
COc1ccccc1N1CCN(/N=C\C(Br)=C\c2ccccc2)CC1,active: 5.62 µM,

Compound,Potency,"activity, negative = inhibition"
Cc1c(NN=C(C#N)C#N)c(=O)n(-c2ccccc2)n1C,active: 3.55 µM,
CCN1CCN(c2ncc(C(=O)Nc3cc(Cl)c(OC)cc3OC)c3ccccc23)CC1,"inconclusive [inhibitor, single point]",
O=C1OC(Nc2cc(Br)cc3cccnc23)c2ccccc21 (stereo not given),inactive,
N#Cc1ccc(CSc2nnc(NC(=O)c3ccc(=O)[nH]c3)s2)cc1,"inconclusive [inhibitor, single point]",
Cc1ccc(NC(=O)COC(=O)Cc2csc(-c3cccc(F)c3)n2)cc1C,active: 11.2 µM,
COc1ccc(Cc2c(O)nc(SCC(=O)NC34CC5CC(CC(C5)C3)C4)[nH]c2=O)cc1,"inconclusive [inhibitor, single point]",
COC(=O)NC(NC(=S)Nc1ccccc1OC)C(Cl)(Cl)Cl (stereo not given),active: 3.16 µM,
Cc1cc(=O)oc2cc(OCC(=O)NCc3cccnc3)ccc12,"inconclusive [inhibitor, partial curve]",
CCC(=O)N(Cc1cc2ccccc2[nH]c1=O)C(C)C,"inconclusive [inhibitor, single point]",
COC(=O)c1ccc(C(=O)OC)c(NC(=S)N2CCN(c3ccc(F)cc3)CC2)c1,"inconclusive [inhibitor, single point]",
COC(CNS(=O)(=O)c1cccc2nonc12)OC,"inconclusive [inhibitor, single point]",
CC(=O)OCC1OC(n2cnc3c(=O)[nH]cnc32)C(OC(C)=O)C1OC(C)=O (stereo not given),inactive,
Cc1ccnc(NC(=S)NC(=O)/C=C/c2ccccc2)c1,inactive,
CSCCOC(=O)c1[nH]c2c(c1C)C(=O)CC(c1ccco1)C2 (stereo not given),"inconclusive [inhibitor, single point]",
Cc1ccc(S(=O)(=O)NCC(=O)OCc2ccccc2Br)cc1,"inconclusive [inhibitor, partial curve]",
Cn1c(=O)c(-c2ccc(F)cc2)nc2cnc(Nc3ccccc3)nc21,inactive,
Cc1nn(C(=O)CNS(=O)(=O)c2ccccc2)c(C)c1Sc1ccc(Cl)cc1,inactive,
CC(C)(C)OC(=O)N/N=C/c1ccc(N2CCOCC2)s1,inactive,
Cc1ccc(CN(CC(=O)NCCc2ccccc2)C(=O)CCCC(=O)Nc2cc(C)on2)cc1,"inconclusive [inhibitor, single point]",
CS(=O)(=O)Nc1ccc(S(=O)(=O)NC2CCCCC2)cc1,"inconclusive [inhibitor, partial curve]",
COc1cccc(CC2CC(=O)N(c3ccc4c(C)cc(=O)oc4c3)C2=O)c1 (stereo not given),active: 1.41 µM,
Cc1ccc(N2C(=N)/C(=C3/Nc4ccccc4S3)C(c3ccccc3)C2=O)cc1 (stereo not given),active: 9.46 µM,
CC(C)NC(=O)[C@@H]1C[C@H]1[C@@H](NC(=O)OCc1ccccc1)c1ccccc1,inactive,
O=S(=O)(c1ccc(NC(=S)NCc2cccnc2)cc1)N1CCCCC1,"inconclusive [inhibitor, partial curve]",
Cc1nn(Cc2ccccc2)c(Cl)c1C(=O)OC(C)C#N (stereo not given),active: 22.4 µM,

Compound,Potency,"activity, negative = inhibition"
CCS(=O)(=O)NCC(c1cccnc1)N1CCN(c2ccccc2)CC1 (stereo not given),inactive,
CC1(C)Cc2nc(NC3CCCCC3)c(C#N)cc2CO1,"inconclusive [inhibitor, partial curve]",
CC1CC(C)CN(c2ccc(C(=O)NCc3ccc4c(c3)OCO4)cc2[N+](=O)[O-])C1 (stereo not given),"inconclusive [inhibitor, partial curve]",
Cc1onc(-c2c(Cl)cccc2Cl)c1C(=O)NC(=S)N1CCOCC1,"inconclusive [inhibitor, single point]",
Cn1c(CO)cnc1S(=O)(=O)Cc1ccc([N+](=O)[O-])cc1,inactive,
CCNc1ncc2nc(C)c(=O)n(C[C@H]3CCCO3)c2n1,"inconclusive [inhibitor, partial curve]",
COc1cccc(N=Nc2c(=O)[nH]n3c(=O)c4c([nH]c23)CCC4)c1,inactive,
C=CCn1c(SCc2ccc(F)cc2)nc2c1c(=O)[nH]c(=O)n2C,"inconclusive [inhibitor, single point]",
Cn1nnnc1SCC(=O)Nc1ccc(Oc2ccccc2)cc1,"inconclusive [inhibitor, single point]",
CCN(CC)CCCN=Cc1c(O)n(Cc2ccccc2)c(=O)c2ccccc12,"inconclusive [inhibitor, partial curve]",
O=C1Nc2ccc([N+](=O)[O-])cc2C1(O)N1CCCCC1 (stereo not given),inactive,
Cc1ccc(/C=C2\SC(=S)N(c3c(C)n(C)n(-c4ccccc4)c3=O)C2=O)cc1,"inconclusive [inhibitor, single point]",
CCCc1ccc(-c2cc(C(=O)Nc3ccc([N+](=O)[O-])cn3)c3ccccc3n2)cc1,inactive,
Clc1ccc(-n2c(SCc3nc4ccccc4[nH]3)nnc2-c2ccncc2)cc1,inactive,
CCOCCCNC(=O)c1cc(Sc2ccc(C)cc2)nc2ccccc12,"inconclusive [inhibitor, single point]",
CC1(C)Cc2nc(N)c(C(=O)NCCO)cc2CO1,"inconclusive [inhibitor, partial curve]",
Cc1ccc(N/C=C/C(=O)c2cccs2)cc1,"inconclusive [inhibitor, single point]",
Cc1nc2nc(-c3ccco3)nn2c(C)c1Cl,"inconclusive [inhibitor, partial curve]",
Cc1ccc(S(=O)(=O)c2cn(Cc3ccc(F)cc3)c3cc4c(cc3c2=O)OCO4)cc1,"inconclusive [inhibitor, partial curve]",
Nc1nc(-c2ccccc2)c(CC(=O)O)s1,,inactive: -9.4% [at 13.5 µM]
C/C(=C\C(=S)Nc1ccccc1)Nc1ccc2ccccc2c1,"inconclusive [inhibitor, partial curve]",
COc1cc(/C=C2/C(=O)NN(c3cccc(C)c3)C2=O)ccc1OC(=O)c1ccco1,active: 3.16 µM,
O=C(Nc1ccc(S(=O)(=O)NC2CCCC2)cc1)c1cnccn1,"inconclusive [inhibitor, single point]",
Clc1cccc(Oc2ncccn2)c1,inactive,
O=C(c1ccc2ccccc2c1)N1CCN(c2ccc([N+](=O)[O-])c(N3CCOCC3)c2)CC1,"inconclusive [inhibitor, single point]",
